Data from PubChem BioAssay AID360 (National Center for Advancing Translational Sciences (NCATS), 2006).
The campaign covered roughly 48,000 compounds. About 550 (1.1%) were called active. Another 4% or so got no clear call; they are omitted. Cut-off read from the data, not from the text of the source: active = potency below about 15 µM; inconclusive = mostly about 16 µM to 33 µM; inactive = weaker than that. Some of the results follow.

target: Lysosomal acid glucosylceramidase (Homo sapiens) (UniProt P04062); test: Glucocerebrosidase; conditions: purified enzyme, resorufin glucoside fluorescence (screen aimed at inhibitors), 20 min; series mostly up to 77 µM;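 note: the screen sought inhibitors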
Chain of UniProt P04062 (P04062 whole entry, looked up): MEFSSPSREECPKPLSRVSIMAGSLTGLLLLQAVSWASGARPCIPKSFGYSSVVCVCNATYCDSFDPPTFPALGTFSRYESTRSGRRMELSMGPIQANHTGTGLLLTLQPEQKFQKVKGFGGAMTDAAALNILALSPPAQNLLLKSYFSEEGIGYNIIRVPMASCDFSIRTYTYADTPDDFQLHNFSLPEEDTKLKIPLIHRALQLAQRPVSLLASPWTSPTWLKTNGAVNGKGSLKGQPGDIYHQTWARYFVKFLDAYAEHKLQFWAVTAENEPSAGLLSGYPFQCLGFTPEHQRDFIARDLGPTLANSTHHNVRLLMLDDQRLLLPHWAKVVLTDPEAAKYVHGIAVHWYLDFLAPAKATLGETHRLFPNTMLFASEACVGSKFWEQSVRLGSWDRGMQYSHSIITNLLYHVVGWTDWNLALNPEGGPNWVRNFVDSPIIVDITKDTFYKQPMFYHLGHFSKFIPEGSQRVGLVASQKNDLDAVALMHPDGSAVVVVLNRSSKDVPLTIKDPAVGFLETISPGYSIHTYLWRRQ
In short: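 Compounds titrated against 0.2 nM normal enzyme, 30 uM resorufin beta-D-glucopyranoside substrate, citrate/phosphate buffer with taurocholate and tween-20, pH 5.9. Reaction ran 20 min at room temperature; fluorescence (Ex 548/Em 600) gave AC50.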
Potency is the fitted concentration of half-maximal effect.

Potency, inactive:
Cc1cccc2cc(COC(=O)C3CCCCC3)c(=O)[nH]c12 > 76.9 µM
O=S(=O)(Nc1ccccc1Cl)c1ccc(F)cc1 > 76.9 µM
COc1ccc(-c2nnc(SCc3csc(N)n3)n2C)cc1 > 76.9 µM
CCOc1ccc(N2C(=O)CC(/C=C3/N(C)c4ccccc4C3(C)C)C2=O)cc1 (stereo unspecified) > 76.9 µM
CCN(C(C)=O)c1nc(CSc2nnc(NC(C)C)s2)cs1 > 76.9 µM
O=C(CSc1nnc2ccccn12)NC(=O)NC1CCCCC1 > 76.9 µM
COC(=O)C1=C(C)NC(=O)NC1c1ccccc1 (stereo unspecified) > 76.9 µM
COc1ccc(-c2cn3c(C)c(C(=O)NCCN4CCOCC4)sc3n2)cc1
COc1ccc(OCCC(=O)OCC(=O)NCc2ccco2)cc1 > 76.9 µM
Cc1cc(NC(=O)COC(=O)CCCOc2ccc(Cl)cc2C)no1 > 76.9 µM
c1ccc2c(c1)CNC1(CCCCC1)C2 > 76.9 µM
CCC(C)NC(=O)c1cc(-c2ccc(OC)cc2)on1 (stereo unspecified) > 76.9 µM
CCOC(=O)c1c(C)c(C(=O)Nc2ccc(N(C)C)cc2)c(C)n1CC > 76.9 µM
CCOc1ccccc1OCC(=O)NCc1ccco1 > 76.9 µM
Cc1sc2c(c1C)CN(C1CC(C)(C)NC(C)(C)C1)CN2C(=O)c1ccco1 > 76.9 µM
COc1ccccc1N1CCN(c2cc(=O)n(-c3ccccc3Cl)c(=O)[nH]2)CC1 > 76.9 µM
Cc1ccc(-n2nnc3c(=O)n(CC(=O)N4CCCC4)cnc32)cc1 > 76.9 µM
O=C(COC(=O)c1ccc2c(c1)OCO2)NC1CCS(=O)(=O)C1 (stereo unspecified) > 76.9 µM
CC(C)(CSc1nncn1/N=C/c1ccco1)NS(=O)(=O)c1ccc(Cl)cc1 > 76.9 µM
CCn1c(SCC(=O)N2CCN(c3ccccc3)CC2)nnc1-c1ccoc1C > 76.9 µM
O=C1C2C(C(=O)N1Cc1cccnc1)C1C=CC2C12CC2 (stereo unspecified) > 76.9 µM
CCOC(=O)COc1ccc(C(=O)NC2CCCCC2)cc1 > 76.9 µM
CCN(Cc1ccccc1)C(c1ccncc1)c1nnnn1C(C)(C)C (stereo unspecified) > 76.9 µM
CCOC(=O)C1CCCN(C(=O)c2c(-c3ccccc3Cl)noc2C)C1 (stereo unspecified) > 76.9 µM
COc1cccc(-c2nnc(SCC(N)=O)n2-c2ccc(Cl)cc2)c1 > 76.9 µM
CC(NC(=O)COc1cc(=O)n(C)c2ccccc12)c1ccc2c(c1)OCCO2 (stereo unspecified) > 76.9 µM
COc1cc(OC)c(C2=NOC(C(=O)NCc3ccc4c(c3)OCO4)C2)cc1Cl (stereo unspecified) > 76.9 µM
Cc1ccc(NS(=O)(=O)c2ccc(CCC(=O)O)cc2)cc1 > 76.9 µM
COc1ccc(S(=O)(=O)CCC(=O)N2c3ccccc3CC2C)cc1 (stereo unspecified) > 76.9 µM
COCc1cc(=O)[nH]c(/N=C(\N)Nc2ccc(Oc3ccccc3)cc2)n1 > 76.9 µM
COCCCNS(=O)(=O)c1ccc2c(c1)CCN2C(C)=O > 76.9 µM
CCOC(=O)c1ccccc1NC(=O)CN1CCC(n2nnc3cc(F)ccc32)CC1 > 76.9 µM
COCC(=O)Oc1c(S(=O)(=O)c2ccc(C)cc2)c(C)nn1-c1ccccc1 > 76.9 µM
CCOc1cc(-c2noc(-c3cccnc3)n2)ccc1OC > 76.9 µM
COc1ccc2cc3c(N)c(C(=O)NCc4ccco4)sc3nc2c1 > 76.9 µM
CCCCN(CC)S(=O)(=O)c1ccc(C(=O)Nc2nnc(-c3ccccc3Cl)o2)cc1 > 76.9 µM
O=C(CCn1nnc2ccccc21)Nc1nnc(-c2ccccc2F)s1 > 76.9 µM
Cc1cnc(NC(=O)CN2C(=O)C3CC=CCC3C2=O)s1 (stereo unspecified) > 76.9 µM
O=C(NC1CC2CCCC(C1)N2Cc1cccs1)N1CCOCC1 (stereo unspecified) > 76.9 µM
CCCOc1ccc2oc(=O)c3c(c2c1)CCCN3C(=O)CN(C)Cc1ccccc1 > 76.9 µM
CCC(C(=O)c1ccc(O)cc1)c1ccccc1 (stereo unspecified) > 76.9 µM
COC(=O)CSc1n[nH]c(-c2ccncc2)n1 > 76.9 µM
Cc1ccc(-n2c(SCC(=O)NCc3cccs3)nnc2-c2ccoc2C)cc1 > 76.9 µM
CN(Cc1ccccc1)C(=O)C1CCN(Cc2ccc(F)cc2)CC1 > 76.9 µM
C=CCn1c(SCC(=O)OCc2ccccc2)nc2c1c(=O)n(C)c(=O)n2C > 76.9 µM
COc1ccc2c(c1)CCCN2C(N)=O > 76.9 µM
CC(C)C(=O)Nc1ccc(NC(=O)c2ccco2)cn1 > 76.9 µM
CCOC(=O)c1cc2c(=O)n3ccccc3nc2n(CC(C)C)c1=NC(=O)c1ccco1 > 76.9 µM
c1cncc(CSc2nnc(-c3cccnc3)n2Cc2ccco2)c1 > 76.9 µM
COc1ccc(CCNc2ncnc3[nH]ncc23)cc1OC > 76.9 µM
COc1ccccc1-c1c(C)nn2c(N3CCC4(CC3)OCCO4)cc(C)nc12 > 76.9 µM
CCc1nc2ccc(C(=O)NCc3ccco3)cc2nc1CC > 76.9 µM
COc1ccc(C2=NO[C@@H]3C(=O)N(c4ccc5c(c4)OCCO5)C(=O)[C@H]23)cc1OC > 76.9 µM
Cc1cc(C)n(-c2ccc(C(=O)NCc3ccc4c(c3)OCO4)cc2)n1 > 76.9 µM
CCc1nnc(NC(=O)CSc2nnc(COc3ccc(C)cc3)n2-c2ccccc2)s1 > 76.9 µM
COc1ccc(C)cc1S(=O)(=O)N(CC(N)=O)Cc1ccccc1 > 76.9 µM
CCOc1cc(N2CCOCC2)c(OCC)cc1NC(=O)Cc1ccc(OC)c(OC)c1 > 76.9 µM
COc1ccc(C(=O)OCc2cc3cccc(C)c3[nH]c2=O)cc1 > 76.9 µM
Cn1c(SCC(=O)NCc2cccs2)nnc1-c1ccncc1 > 76.9 µM
Cc1noc(C)c1C(=O)Nc1sc2c(c1C(N)=O)CCCCC2 > 76.9 µM
Cn1c(NC(=O)C2c3ccccc3Oc3ccccc32)cc(=O)n(C)c1=O > 76.9 µM
CC1Cc2ccccc2N1C(=O)CCNS(=O)(=O)c1cccc2nsnc12 (stereo unspecified) > 76.9 µM
O=C(O)c1cc(-c2ccco2)nc2ccc(Br)cc12 > 76.9 µM
COC(=O)[C@H](Cc1ccccc1)NC(=O)N1CCN(Cc2ccccc2)CC1 > 76.9 µM
CCNS(=O)(=O)c1ccc(OC)c(C)c1 > 76.9 µM
O=C1CSC(=Nc2cc(Cl)ccc2Cl)N1 > 76.9 µM
CCOc1ccc(Nc2nc3c(c(=O)[nH]2)CCC3)cc1 > 76.9 µM
CC(=O)Nc1ccccc1C(=O)N1CC(C)OC(C)C1 (stereo unspecified) > 76.9 µM
CCN(C(=O)COC(=O)c1cc(C)n(-c2ccc(F)cc2)c1C)C1CCS(=O)(=O)C1 (stereo unspecified) > 76.9 µM
COc1cc(C(=S)N(C)C)ccc1O > 76.9 µM
Cn1c(C(=O)NCCN2CCc3ccccc3C2)cc2c(=O)[nH]c3ccccc3c21 > 76.9 µM
Cc1cccc(N(Cc2ccccc2F)S(C)(=O)=O)c1 > 76.9 µM
CCCSc1nc(N)c(C#N)c(-c2ccc(C)cc2)c1C#N > 76.9 µM
Nc1ccc2oc(=O)c3ccccc3c2c1 > 76.9 µM
COc1ccccc1-c1nnc(SCC(=O)Nc2cc(C)on2)o1 > 76.9 µM
O=C(CN(c1ccccc1)S(=O)(=O)c1ccc(F)cc1)N1CCCCCC1 > 76.9 µM
CC(=O)OCC(OC(C)=O)C(OC(C)=O)C(OC(C)=O)C(=O)Nc1ccc(C)cc1C (stereo unspecified) > 76.9 µM
CCc1nnc(NC(=O)C2Cc3ccccc3CN2S(=O)(=O)c2cccs2)s1 (stereo unspecified) > 76.9 µM
Cc1cc(=O)n(-c2ccc(O)cc2)[nH]1
CC(C(=O)O)N1C(=O)CSC1=S (stereo unspecified) > 76.9 µM
O=C(O)c1[nH]c2ccc(Cl)cc2c1CC(=O)N1CCN(C(=O)c2ccco2)CC1 > 76.9 µM
CC(C)(C)N1C(=O)c2ccc(C(=O)NCc3ccco3)cc2C1=O > 76.9 µM
OCc1csc(=Nc2ccccc2)n1-c1ccccc1 > 76.9 µM
CC(=O)Nc1ccc(S(=O)(=O)NCCc2csc(C)n2)cc1 > 76.9 µM
Cc1cc(C)cc(-n2ccnc2SCC(=O)Nc2ccc3c(c2)OCCO3)c1 > 76.9 µM
CCN1C(=O)C2(/C(=C(\O)c3ccc4c(c3)OCCO4)C(=O)C(=O)N2CCCOC)c2ccccc21 (stereo unspecified) > 76.9 µM
Cc1cccc(NC(=O)c2c(O)c3cccc4c3n(c2=O)CCC4)n1 > 76.9 µM
CCOc1ccc(N2CC(C(=O)NCc3ccc(F)cc3)CC2=O)cc1 (stereo unspecified) > 76.9 µM
Cc1cccc(Nc2ncccc2C(=O)O)c1C > 76.9 µM
O=C(CSc1nnc(-c2cnccn2)n1Cc1ccco1)c1ccc2ccccc2c1 > 76.9 µM
Cc1cc(NC(=O)CSc2nc(C(C)C)nc3sc(C)c(C)c23)no1 > 76.9 µM
